The supplement of paper PMC4166925
± gives the standard deviation of the averaged measurements. Whole data set: some 33,000 sequences, median “E-score (dimensionless, -0.5 to 0.5)” near -0.046, cut for the highest 2% near 0.36. The list shows a part of the results.

System: T1, SpTbr T-box DNA-binding domain (GST fusion)
T1 sequence: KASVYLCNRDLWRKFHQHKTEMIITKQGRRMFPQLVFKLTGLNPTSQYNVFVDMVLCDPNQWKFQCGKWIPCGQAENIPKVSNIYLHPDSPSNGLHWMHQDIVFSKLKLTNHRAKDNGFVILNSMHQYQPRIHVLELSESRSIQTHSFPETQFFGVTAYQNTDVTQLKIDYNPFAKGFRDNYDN
Assay: PBM E-score of 8-mer (E-score (dimensionless, -0.5 to 0.5)); Tbr is Tbrain of the sea star Patiria miniata (Pm) or the sea urchin Strongylocentrotus purpuratus (Sp); higher = stronger binding preference; most listed sequences are background and not binding sites
Conditions: the construct has about 5 more residues each side
Method in brief: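 GST-fused Tbr T-box DNA-binding domains (the whole T-box plus about five flanking residues) were expressed in BL21 E. coli at 20 °C and purified by glutathione affinity chromatography. Universal Agilent oligonucleotide arrays were made double-stranded by primer extension, incubated with 200 nM protein in PBS (pH 7.5), then scanned and quantified. Every ungapped 8-mer was scored from probe intensities. The Universal PBM Analysis Suite gave each word an enrichment E-score, averaged over duplicate arrays.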

| Sequence | PBM E-score of 8-mer |
| --- | --- |
| GGAGAGCC | -0.268 ± 0.026 |
| AACGTGTC | 0.372 ± 0.0067 |
| CCGCTCAC | 0.151 ± 0.069 |
| ACGTTGGG | 0.0926 ± 0.053 |
| ATCCTGCC | -0.182 ± 0.054 |
| GCTTACAC | 0.219 ± 0.012 |
| GGAACAAC | -0.138 ± 0.096 |
| CCGTCTGA | -0.337 ± 0.039 |
| CCGTTTGA | -0.108 ± 0.054 |
| ACTTAAGA | -0.0415 ± 0.05 |
| GTGCGGCA | 0.0752 ± 0.035 |
| ACAATAGC | -0.0388 ± 0.035 |
| AGGATGTC | -0.126 ± 0.034 |
| GAAACATA | 0.00184 ± 0.075 |
| CGATGACA | 0.295 ± 0.046 |
| CTGGCGGA | -0.184 ± 0.038 |
| CTAGCCCA | -0.00492 ± 0.087 |
| AGTTCAGA | -0.217 ± 0.0075 |
| CGCTCACA | 0.263 ± 0.015 |
| AGGACCTG | -0.16 ± 0.091 |
| ATCAGCTA | 0.0373 ± 0.043 |
| ATAGACGA | -0.186 ± 0.076 |

| Sequence | PBM E-score of 8-mer |
| --- | --- |
| CCATGAAG | -0.0335 ± 0.015 |
| GCGCACTA | 0.0286 ± 0.014 |
| GCGCGCCC | 0.158 ± 0.059 |
| AAGTGAAA | 0.209 ± 0.069 |
| CTACAACA | 0.151 ± 0.021 |
| ACTATTGC | -0.0869 ± 0.025 |
| CTTAATCA | -0.0898 ± 0.078 |
| AACGTTGC | 0.0331 ± 0.065 |
| AGCAGCGA | -0.0665 ± 0.023 |
| ACGACATA | -0.0753 ± 0.025 |
| GCAAACCC | -0.0464 ± 0.01 |
| GTAAGGGA | 0.0134 ± 0.015 |
| AAACGGGT | -0.102 ± 0.05 |
| CCTATAGG | -0.111 ± 0.077 |
| CACCGCCC | 0.12 ± 0.049 |
| CTTGCTGA | 0.0634 ± 0.045 |
| CGAGTGTA | 0.145 ± 0.029 |
| CGCGAGTC | 0.262 ± 0.035 |
| ACACGGAT | 0.147 ± 0.059 |
| CTAGGACA | 0.0859 ± 0.014 |
| ACAATACT | 0.115 ± 0.018 |
| AAGCTTCA | -0.17 ± 0.011 |

| Sequence | PBM E-score of 8-mer |
| --- | --- |
| TGCATAAA | -0.277 ± 0.1 |
| GGTTGTCA | 0.338 ± 0.0013 |
| AGGACCTC | -0.19 ± 0.028 |
| AAGACTCT | -0.235 ± 0.0099 |
| ACTTCGTC | 0.0823 ± 0.0061 |
| AGTTCCGA | -0.0863 ± 0.035 |
| GCATTTGA | -0.0218 ± 0.011 |
| ACGGGGTA | -0.155 ± 0.037 |
| CCGACTTC | -0.135 ± 0.06 |
| AAAATTCC | -0.13 ± 0.086 |
| CACGAAGC | -0.0302 ± 0.044 |
| ACTTGCCT | -0.00622 ± 0.073 |
| GTTTCCCA | 0.0724 ± 0.023 |
| GATGCGAC | 0.216 ± 0.022 |
| CGCGGCAC | 0.233 ± 0.0063 |
| GAAACGTA | -0.0747 ± 0.011 |
| CCGAGGAC | -0.00813 ± 0.05 |
| GAACAGCA | -0.0104 ± 0.052 |
| ACAGTCGT | 0.0314 ± 0.056 |
| GTGGCGAA | 0.307 ± 0.0044 |
| ATGACAAC | 0.222 ± 0.017 |
| GCTCAACA | -0.116 ± 0.037 |

| Sequence | PBM E-score of 8-mer |
| --- | --- |
| AAGCGACT | -0.0562 ± 0.00065 |
| GCTCACGA | 0.0514 ± 0.018 |
| GATTGTCC | -0.243 ± 0.0045 |
| CCGCCGGA | -0.153 ± 0.0055 |
| AACCAAGC | -0.0913 ± 0.019 |
| ATGCTGTC | 0.0861 ± 0.067 |
| ATGCGTGA | 0.374 ± 0.0053 |
| ACAGTTAC | 0.0684 ± 0.0085 |
| AACCACGC | 0.0508 ± 0.067 |
| CTATGGTA | -0.179 ± 0.0064 |
| ACAATATC | 0.00651 ± 0.023 |
| CGGTCGGA | -0.319 ± 0.052 |
| CGCGTACA | 0.0943 ± 0.015 |
| AGTGCGTC | -0.0869 ± 0.076 |
| GACCATAA | 0.196 ± 0.06 |
| TAAAGGAA | -0.222 ± 0.016 |
| CGTAGACC | -0.157 ± 0.018 |
| AGCGTTCG | 0.192 ± 0.054 |
| ATAGGGCG | 0.0377 ± 0.023 |
| ATAAGCCA | -0.193 ± 0.018 |
